B1: PhoQ; a variant is named by its letters at X, in order, P23837 (parent)
chain: MKKLLRLFFPLSLRVRFLLATAAVVLVLSLAYGMVALIGYSVSFDKTTFRLLRGESNLFYTLAKWENNKLHVELPENIDKQSPTMTLIYDENGQLLWAQRDVPWLMKMIQPDWLKSNGFHEIEADVNDTSLLLSGDHSIQQQLQEVREDDDDAEMTHSVAVNVYPATSRMPKLTIVVVDTIPVELKSSYMVWSWFIYVLSANLLLVIPLLWVAAWWSLRPIEALAKEVRELEEHNRELLNPATTRELTSLVRNLNRLLKSERERYDKYRTTLTDLTHSLKTPLXXLQXXLRSLRSEKMSVSDAEPVMLEQISRISQQIGYYLHRASMRGGTLLSRELHPVAPLLDNLTSALNKVYQRKGVNISLDISPEISFVGEQNDFVEVMGNVLDNACKYCLEFVEISARQTDEHLYIVVEDDGPGIPLSKREVIFDRGQRVDTLRPGQGVGLAVAREITEQYEGKIVAGESMLGGARMEVIFGRQHSAPKDE

The list shows a part of the results.

The variants in this experiment derive from B1. Kind of experiment: enrichment ratio after two sorts for PhoP signalling (ratio (wild type AVST 3.29)); higher = more functional. The note with it: with PhoP (E. coli).
With QTYK, the enrichment ratio was at most 0.25. For QPRR, the enrichment ratio is at most 0.25. Turning to NHVH, the enrichment ratio is at most 0.25.

Regarding QGCA, the enrichment ratio is at most 0.25. For the variant RRKM, the enrichment ratio is at most 0.25. RSMQ: the enrichment ratio is at most 0.25. For the variant YMFI, the enrichment ratio is at most 0.25. As for QHHT, the enrichment ratio was at most 0.25. With NHYS, the enrichment ratio is at most 0.25. As for QTRG, the figure is at most 0.25; as for NTPS, at most 0.25.

As for GPID, the enrichment ratio was at most 0.25. Regarding EAWF, the enrichment ratio is at most 0.25. As for YRED, the figure is at most 0.25. For FMSA, the enrichment ratio is at most 0.25. With QECV, the enrichment ratio was determined as 8.7.

For LMAP, the enrichment ratio was at most 0.25. Take TGCG: the enrichment ratio was determined as 24.4.

As to NMYY, the enrichment ratio is at most 0.25.

Regarding SGVW, the enrichment ratio is at most 0.25. For AADY, the enrichment ratio is at most 0.25. Regarding NPGD, the enrichment ratio is at most 0.25. As for KLQD, the figure is at most 0.25; as for TMSQ, 13.5. Turning to AQCN, the enrichment ratio stood at 4.1.

As for VRWH, the enrichment ratio is at most 0.25.

In the case of LPFK, the enrichment ratio is at most 0.25. For the variant FVLH, the enrichment ratio turned out to be 2.94. With GSGI, the enrichment ratio was found to be 9.38.

For PMRA, the enrichment ratio was at most 0.25. DILH: the enrichment ratio is at most 0.25. As for MEYW, the figure is at most 0.25; as for GRMT, at most 0.25; as for RNHS, at most 0.25. As to FEMG, the enrichment ratio amounted to 1.94. Regarding VFVC, the enrichment ratio was at most 0.25.

With PKDA, the enrichment ratio is at most 0.25. Consider SRVY, for which the enrichment ratio is at most 0.25. TWKL: the enrichment ratio is at most 0.25. Regarding GESL, the enrichment ratio came out at 2.52. For IFWC, the enrichment ratio amounted to 1.04. Under TLGD stands 0.374. For the variant QLSN, the enrichment ratio was at most 0.25. With IIPK, the enrichment ratio is at most 0.25.

RHLY: the enrichment ratio came out at 0.682.

On to ERFY, for which the enrichment ratio is at most 0.25. Under EKLM stands at most 0.25; under DLQR, at most 0.25. Turning to AGVT, the enrichment ratio worked out at 6.41. Under FKIA stands at most 0.25. Regarding VKYN, the enrichment ratio is at most 0.25. For LCHH, the enrichment ratio was at most 0.25. As for QYAK, the figure is at most 0.25; as for VLDP, at most 0.25. As to PKLN, the enrichment ratio is 0.501. Turning to FQKM, the enrichment ratio is at most 0.25. On to KHPC, for which the enrichment ratio is at most 0.25. As to TFAT, the enrichment ratio was at most 0.25. For PNSK, the enrichment ratio was at most 0.25. Take KTAW: the enrichment ratio was at most 0.25.

For the variant RQRP, the enrichment ratio was at most 0.25. In the case of LVIV, the enrichment ratio is at most 0.25. Consider DYSW, for which the enrichment ratio was 0.37. With VEFS, the enrichment ratio is at most 0.25.

Turning to QCFN, the enrichment ratio is at most 0.25.

For TGTR, the enrichment ratio was at most 0.25. Turning to FLPK, the enrichment ratio was at most 0.25. For QQQA, the enrichment ratio was at most 0.25. In the case of TTSY, the enrichment ratio turned out to be 9.58. As for FIYK, the figure is at most 0.25. For FSSR, the enrichment ratio is at most 0.25.

In the case of FQTK, the enrichment ratio was at most 0.25.

With SSYT, the enrichment ratio is at most 0.25. With LCHD, the enrichment ratio is at most 0.25. As for QQHS, the enrichment ratio was at most 0.25.

Turning to FIGK, the enrichment ratio is at most 0.25. As for SKDT, the figure is at most 0.25; as for ASDD, at most 0.25; as for HWEG, at most 0.25. Consider YCGI, for which the enrichment ratio was 0.468. Take SIRN: the enrichment ratio is at most 0.25. Take NPRV: the enrichment ratio was at most 0.25. As for MRTG, the enrichment ratio was at most 0.25. In the case of DPIG, the enrichment ratio was at most 0.25. Regarding NTFI, the enrichment ratio was at most 0.25. Regarding LLKP, the enrichment ratio was at most 0.25. Consider HNCF, for which the enrichment ratio was at most 0.25. DLKM: the enrichment ratio was at most 0.25. On to RSHF, for which the enrichment ratio was at most 0.25.

For WNVD, the enrichment ratio was at most 0.25. As to PNIV, the enrichment ratio was at most 0.25. For YQHL, the enrichment ratio is at most 0.25.

For the variant DDII, the enrichment ratio is at most 0.25. As for NLWS, the figure is at most 0.25; as for NYFR, at most 0.25; as for PACA, at most 0.25.

Consider IGLS, for which the enrichment ratio was at most 0.25. As to GMVA, the enrichment ratio was at most 0.25.

On to IRGV, for which the enrichment ratio was at most 0.25. Turning to DPFT, the enrichment ratio was at most 0.25. Turning to YYTS, the enrichment ratio was at most 0.25. Consider FTDM, for which the enrichment ratio was at most 0.25. Under FLHP stands at most 0.25; under TGIH, at most 0.25. For FMYS, the enrichment ratio is at most 0.25. For the variant MIHE, the enrichment ratio was at most 0.25.

Turning to ASQP, the enrichment ratio is at most 0.25.

On to EYCP, for which the enrichment ratio was at most 0.25. As for WCKC, the enrichment ratio is at most 0.25. Turning to QKLR, the enrichment ratio is at most 0.25. EVSS: the enrichment ratio is at most 0.25. For the variant VKAS, the enrichment ratio is at most 0.25. Consider EFYW, for which the enrichment ratio is at most 0.25. For the variant EICR, the enrichment ratio is at most 0.25.

In the case of TYFI, the enrichment ratio was at most 0.25. Under HDRP stands at most 0.25; under VYKW, at most 0.25. As for ACKQ, the figure is at most 0.25. Turning to QHWY, the enrichment ratio was at most 0.25. For HNVD, the enrichment ratio was at most 0.25. Under AQIQ stands 27.9; under DQKV, at most 0.25.

For the variant AVNK, the enrichment ratio was at most 0.25. Turning to RPSL, the enrichment ratio was at most 0.25.

TMLI: the enrichment ratio amounted to 4.59.

In the case of YMSQ, the enrichment ratio is at most 0.25.

As for WGMH, the enrichment ratio was at most 0.25. As for WNRP, the figure is at most 0.25. On to IRFA, for which the enrichment ratio is at most 0.25.

Turning to YDLT, the enrichment ratio was at most 0.25. WHGS: the enrichment ratio is at most 0.25. Regarding FPND, the enrichment ratio is at most 0.25.

With HYKE, the enrichment ratio was at most 0.25. In the case of WDHI, the enrichment ratio is at most 0.25.

With WTGS, the enrichment ratio is at most 0.25.

Turning to EFCH, the enrichment ratio was at most 0.25.

As for LYME, the enrichment ratio is at most 0.25. Under WPWN stands at most 0.25.

Turning to KIPA, the enrichment ratio is at most 0.25.

As for GGMA, the enrichment ratio is at most 0.25.

Regarding NTRT, the enrichment ratio is at most 0.25. Under SAMQ stands 9.86; under QGID, at most 0.25. Take WYCI: the enrichment ratio was at most 0.25. As for MDGH, the figure is at most 0.25; as for ELRE, at most 0.25; as for CKFL, at most 0.25. As for TEWW, the figure is at most 0.25; as for PVFM, at most 0.25. For NIRM, the enrichment ratio was at most 0.25. Take KSAM: the enrichment ratio was at most 0.25. In the case of NKNY, the enrichment ratio is at most 0.25. Under RIKF stands at most 0.25.
